From article PMC4336329 (PLoS ONE, 2015)
Among all 310,000 compounds or so, about 2,200 (0.71%) showed an effect of 50% or more. The effect is printed as a negative number. Some of the results follow.

Target: human ether-à-go-go-related gene (hERG) potassium channel (human, UniProt Q12809)
Assay: primary screen, population patch clamp on CHO cells stably expressing hERG

human ether-à-go-go-related gene (hERG) potassium channel, sequence (Q12809 whole entry, looked up): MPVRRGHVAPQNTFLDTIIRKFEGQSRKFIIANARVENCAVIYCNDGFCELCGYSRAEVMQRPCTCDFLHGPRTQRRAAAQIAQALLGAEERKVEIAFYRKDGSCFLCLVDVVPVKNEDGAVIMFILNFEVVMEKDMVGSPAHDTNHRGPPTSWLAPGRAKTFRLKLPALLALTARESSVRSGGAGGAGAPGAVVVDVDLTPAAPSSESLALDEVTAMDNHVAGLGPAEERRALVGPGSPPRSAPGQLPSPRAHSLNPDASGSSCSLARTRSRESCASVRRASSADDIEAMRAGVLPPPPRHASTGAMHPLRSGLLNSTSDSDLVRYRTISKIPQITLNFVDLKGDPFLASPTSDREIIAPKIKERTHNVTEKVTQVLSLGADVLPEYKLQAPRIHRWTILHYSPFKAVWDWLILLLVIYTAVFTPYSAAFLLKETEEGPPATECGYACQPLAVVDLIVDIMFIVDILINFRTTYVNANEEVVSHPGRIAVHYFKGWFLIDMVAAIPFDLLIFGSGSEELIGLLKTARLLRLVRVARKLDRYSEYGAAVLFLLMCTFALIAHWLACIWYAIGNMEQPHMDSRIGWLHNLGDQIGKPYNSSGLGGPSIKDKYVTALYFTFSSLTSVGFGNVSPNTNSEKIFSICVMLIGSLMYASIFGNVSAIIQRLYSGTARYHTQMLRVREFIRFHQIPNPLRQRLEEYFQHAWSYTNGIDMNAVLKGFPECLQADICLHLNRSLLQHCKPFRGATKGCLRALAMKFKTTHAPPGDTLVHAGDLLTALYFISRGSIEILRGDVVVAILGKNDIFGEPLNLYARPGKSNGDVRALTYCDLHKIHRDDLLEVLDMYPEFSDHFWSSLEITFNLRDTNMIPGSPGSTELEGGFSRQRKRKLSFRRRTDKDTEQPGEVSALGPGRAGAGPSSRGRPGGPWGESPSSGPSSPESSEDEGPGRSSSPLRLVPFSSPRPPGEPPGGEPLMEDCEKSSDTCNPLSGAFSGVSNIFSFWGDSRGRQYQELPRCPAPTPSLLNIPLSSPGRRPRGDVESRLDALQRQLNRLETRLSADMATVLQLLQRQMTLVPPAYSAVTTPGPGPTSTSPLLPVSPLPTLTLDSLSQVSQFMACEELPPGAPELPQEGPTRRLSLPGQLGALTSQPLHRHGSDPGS

Row | SMILES | hERG current change (%, negative = inhibition) at 1uM [%]
1 | Cc1nn(-c2ccccc2)c2c1C1(C(=O)N(C)c3ccccc31)N(c1ccccc1)C(=O)N2 (stereo not drawn) | -9.6
2 | CN(C)S(=O)(=O)c1cccc(NC(=O)COC(=O)CCC(=O)c2cccs2)c1 | -0.771
3 | O=C(CNCC1CCCO1)N1CCCCCC1.O=C(O)C(=O)O (stereo not drawn) | 11.2
4 | COc1ccc(C(=O)NCc2csc(C(C)C)n2)cc1OC1CCN(C(C)=O)CC1 | 12.9
5 | Nc1nc(-c2ccccc2)cc(C(F)(F)F)n1 | 12.6
6 | CCOC(=O)N1CCN(C(=O)CCn2c(=O)[nH]c3ccsc3c2=O)CC1 | 11.6
7 | CC(C)(C)c1ccc(S(=O)(=O)NCC(=O)N2CCN(Cc3ccccc3)CC2)cc1 | 5.56
8 | CN1CCN(S(=O)(=O)c2cc(Cl)c(Cl)cc2Cl)CC1 | 14.5
9 | COc1cc(C)c(C(=O)Oc2cc(C)c(C(=O)O)c(O)c2)c(O)c1 | 14.8
10 | COc1ccc(CN2CCC(C(=O)Nc3ccc(Oc4cccnc4)cc3)CC2)c(C)c1C | 2.89
11 | COc1ccc(OC)c(NC(=O)C(=O)NNC(=O)c2cccs2)c1 | 11.9
12 | CC(C)n1c(CNC(=O)c2ccccc2)nc2ccccc21 | 10
13 | COc1ccc(OCC#CCn2ccnc2)cc1.O=C(O)C(=O)O | 12.2
14 | CSc1n[nH]c(NCc2ccc(C)cc2)n1 | 11.4
15 | O=C(NCCc1ccccc1)c1cccc(S(=O)(=O)NCc2ccccc2)c1 | -12.7
16 | CCN(CC(=O)Nc1c(F)cccc1F)C(=O)c1ccc(N2CCCCC2)c([N+](=O)[O-])c1 | 3.85
17 | O=C(Nc1ccc(Br)cc1)c1cccc(N2C(=O)C3C4C=CC(C4)C3C2=O)c1 (stereo not drawn) | 5.41
18 | Cc1nc(C(=O)Nc2ccccc2)sc1C(=O)Nc1ccccc1 | 10.5
19 | Cc1cc(S(=O)(=O)c2ccc([N+](=O)[O-])cn2)ccc1Br | 12.7
20 | Nc1c(-c2ccccc2Cl)cnn1-c1cccc([N+](=O)[O-])c1 | -7.78
21 | Cc1ccc(CSCC(=O)N(CCC(C)C)c2c(N)n(Cc3ccccc3)c(=O)[nH]c2=O)cc1 | -11.2
22 | CCOC(=O)c1cc(C)n(CCc2ccccc2)c1C | 12.3

Row | SMILES | hERG current change (%, negative = inhibition) at 1uM [%]
23 | COc1cccc(OCc2cc(C(=O)NCc3cnc4ccccn34)no2)c1 | 3.98
24 | Cc1noc(C)c1CSc1nnc(-c2cccnc2)n1C1CCCCC1C (stereo not drawn) | -7.22
25 | COc1ccc(OC)c(/C=C2\SC(=S)N(NS(=O)(=O)c3ccccc3)C2=O)c1 | 3.97
26 | O=C(Oc1cc(-c2ccccc2)no1)c1ccc(Cl)cc1 | 10.6
27 | O=C(NCCCO)c1ccc2[nH]c3ccccc3c2c1 | 13.4
28 | COc1cc(-c2noc(C3CCCN(S(=O)(=O)c4cccc(Cl)c4)C3)n2)cc(OC)c1OC (stereo not drawn) | -0.0886
29 | O=C(NCc1ccccc1)C1CCN(S(=O)(=O)c2cc([N+](=O)[O-])ccc2Cl)CC1 | 1.19
30 | CCOc1ccccc1/C=C(/NC(=O)c1ccccc1)C(=O)NC(C)c1ccccc1 (stereo not drawn) | -4.29
31 | CC(C)c1ccc2c(c1)C1(NN=C(c3ccccc3)S1)C(=O)N2 (stereo not drawn) | 7.95
32 | CCn1c(/C=C/c2c(C)[nH]c3ccccc23)nc2ccccc2c1=O | 2.62
33 | Cc1c(Cl)cccc1NS(=O)(=O)c1ccc2c(c1)C1C=CCC1C(c1ccc(C(=O)O)cc1)N2 (stereo not drawn) | 19.9
34 | O=S(=O)(Nc1nc2ccccc2[nH]1)c1ccc2ccccc2c1 | 4.26
35 | Cc1nn(-c2cccc([N+](=O)[O-])c2)c(N)c1-c1ccccc1 | -5.64
36 | C=C1C(=O)O[C@@H]2C[C@@H](C)[C@@H]3C4OC4C(=O)[C@@]3(C)[C@@H](O)[C@H]12 (stereo partly drawn) | 4.34
37 | O=C(/C=C/c1ccco1)NCCc1ccc(F)cc1 | 13.2
38 | O=C(c1cnn2c(C(F)F)cc(C3CC3)nc12)N1CCOCC1 | 7.49
39 | CN1CCN(C(=O)CN2C(=O)CC(C)(C)S(=O)(=O)c3ccccc32)CC1 | 15.7
40 | O=C(Nc1ccccc1C(=O)N1CCCCC1)NC1CCCCC1 | 7.82
41 | CC1Oc2ccccc2C=C1/C=N/Nc1ccc(C(=O)O)cc1 (stereo not drawn) | 7.72
42 | O=C(Cc1ccc([N+](=O)[O-])cc1)NNC(=O)c1ccc2c(c1)OCO2 | 6.28
43 | CCc1cccc(C)c1N1C(=O)CC(C)(C)CC1=O | 13.1
44 | CCc1cccc2c1NC(=O)C21OCCO1 | 15

Row | SMILES | hERG current change (%, negative = inhibition) at 1uM [%]
45 | CCOc1ccc2[nH]c(C(=O)N/N=C/c3ccccc3OC)cc2c1 | 32.1
46 | C#CCN1C(=O)S/C(=C\c2ccc(-c3ccc(C(=O)O)cc3C)o2)C1=O | 14.2
47 | Cc1ccc(C)c(N2CCN(C(=S)NC3CCCCC3)CC2)c1 | 3.11
48 | C/C(=N\OC(=O)c1cccc(C(F)(F)F)c1)c1sc(-c2ccccc2)nc1C | 13.1
49 | O=C(c1ccc(F)cc1)c1c[nH]c(C(=O)NCCCN2CCOCC2)c1 | 10.4
50 | O=C(O)CC1(CC(=O)NCc2ccccn2)CCCCC1 | 11.4
51 | COc1ccccc1C(NC(C)=O)c1cc(Cl)c2cccnc2c1O (stereo not drawn) | 10.7
52 | O=C(O)c1ccc(NC(=S)NC(=O)c2ccc3ccccc3c2)cc1 | -4.32
53 | CCCCn1c(N)c(N(CCOC)C(=O)c2cccc(S(=O)(=O)N3CCCCC3)c2)c(=O)[nH]c1=O | 18.2
54 | CN1C(=O)CC(c2cn(Cc3ccccc3)c3ccccc23)C1=O (stereo not drawn) | 4.03
55 | COC(=O)C1=C(C(=O)OC)[C@@H]2N(C)c3ccc(OC)cc3[C@@]23C[C@@H](C(=O)OC)N(C(=O)c2ccco2)C3=N1 | -0.967
56 | C/C=C/c1ccc(OCCN2C(=O)NC(C)(C)C2=O)c(OC)c1 | 9.17
57 | O=P(COc1ccccc1)(c1ccccc1)c1ccccc1 | -4.86
58 | CC(C)c1cc(C(N)=O)c(NC(=O)c2cccc(COc3ccc(Br)cc3)c2)s1 | 19
59 | O=C(Nc1ccc(Br)cc1)c1ccc2c(c1)OCO2 | 11.3
60 | O=C(CNC(=O)[C@@H]1Cc2ccccc2CN1)NCc1ccco1 | 12.3
61 | CNc1oc(-c2cccs2)nc1C#N | 0.194
62 | CCOC(=O)c1cc(C#N)c(Oc2ccc(F)cc2)nc1-c1ccccc1 | 13.6
63 | Cc1cc(OC(=O)c2ccc(C)c(C)c2)c([N+](=O)[O-])c(=O)[nH]1 | 15.8
64 | CNC(=O)NC(=O)C(C)OC(=O)c1cc2c(s1)CCCCC2 (stereo not drawn) | -11.3
65 | C/C(=N/NC(=O)CNC(=O)C1COc2ccccc2O1)c1cccc(O)c1 (stereo not drawn) | 8.79
66 | CC(C)Oc1cccc(C(=O)C2CCCN(C(=O)c3ccc4c(c3)OCO4)C2)c1 (stereo not drawn) | 9.61

Row | SMILES | hERG current change (%, negative = inhibition) at 1uM [%]
67 | O=C(NCCCNC(=O)c1cnccn1)c1cccc(F)c1 | 18.6
68 | CCOc1ccc(C(=O)Nc2ccc3[nH]ncc3c2)cc1 | 20.8
69 | CC(C)N1C(=O)/C(=C/C=C/c2ccco2)C(=O)N(Cc2ccco2)C1=O | 13.3
70 | COc1cc(NC(=O)c2ccc3c(c2)C(=O)N(CCC(C)C)C3=O)c(C(=O)O)cc1OC | 16
71 | Cc1cc(Cl)ccc1C(=O)C1CCCN(C2CCSCC2)C1 (stereo not drawn) | -49.3
72 | CCOc1ccccc1NC(=O)Cn1c(=O)c(OCC)nc2cnccc21 | 11.4
73 | Cc1nc(SCc2ccc(C(=O)O)cc2)c2c(C)c(C)sc2n1 | -3.11
74 | CCOc1ccc(NC(=O)CN(c2ccc(OCC)cc2)S(=O)(=O)c2c(C)[nH]c(=O)[nH]c2=O)cc1 | 13.4
75 | CCC1CCc2c(sc(NC(C)=O)c2C#N)C1 (stereo not drawn) | 8.69
76 | CCN(CC)S(=O)(=O)c1ccc(OC)c(NC(=O)CSc2cc(C)ccc2C)c1 | 11
77 | Cn1c(N)c(C(=O)CSc2nc(C3CC3)n(-c3ccccc3)n2)c(=O)[nH]c1=O | 5.72
78 | CC1C(=O)N(Cc2ccc(F)cc2)c2ccccc2N1C(=O)c1c(F)cccc1F (stereo not drawn) | 15.7
79 | Cn1c(=S)ccc2ccccc21 | 12.3
80 | CN(C)c1nc(Oc2ccc(=O)[nH]n2)nc(N2CCCCC2)n1 | 5.54
81 | COC(=O)/C(=C\c1ccc2c(c1)c1ccccc1n2C)NC(=O)c1ccccc1 | -7.88
82 | Cc1nnc(SCC(=O)N(Cc2ccccc2)C(C)(C)C)[nH]c1=O | 15
83 | Cn1nnc2cc(C(=O)Nc3ccc(Cl)cc3)ccc21 | 9.5
84 | COc1cccc(C2CC(=O)Nc3cc4c(cc32)OCCO4)c1OC(C)C (stereo not drawn) | 16.8
85 | O=C(c1ccc2nc(-c3ccco3)c(-c3ccco3)nc2c1)N1CCN(c2ccccc2)CC1 | -5.7
86 | Cc1ccc(S(=O)(=O)N2CCC(C(=O)O)CC2)cc1C(=O)O | 10.5
87 | NC(=O)c1ccc(-c2ccccc2F)cc1 | 3.79
